Measured values as given in paper PMC4336329 (PLoS ONE, 2015).
Among all 310,000 compounds or so, about 14,000 (4.5%) showed an effect of 50% or more. Effects have a minus sign here. The list shows a part of the results.

These compounds were tested against human ether-à-go-go-related gene (hERG) potassium channel (human, UniProt Q12809) (assay: primary screen, population patch clamp on CHO cells stably expressing hERG).
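Note: peak tail current of the secondary pulse compared with the same well before compound.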

Sequence of human ether-à-go-go-related gene (hERG) potassium channel (Q12809 whole entry, looked up): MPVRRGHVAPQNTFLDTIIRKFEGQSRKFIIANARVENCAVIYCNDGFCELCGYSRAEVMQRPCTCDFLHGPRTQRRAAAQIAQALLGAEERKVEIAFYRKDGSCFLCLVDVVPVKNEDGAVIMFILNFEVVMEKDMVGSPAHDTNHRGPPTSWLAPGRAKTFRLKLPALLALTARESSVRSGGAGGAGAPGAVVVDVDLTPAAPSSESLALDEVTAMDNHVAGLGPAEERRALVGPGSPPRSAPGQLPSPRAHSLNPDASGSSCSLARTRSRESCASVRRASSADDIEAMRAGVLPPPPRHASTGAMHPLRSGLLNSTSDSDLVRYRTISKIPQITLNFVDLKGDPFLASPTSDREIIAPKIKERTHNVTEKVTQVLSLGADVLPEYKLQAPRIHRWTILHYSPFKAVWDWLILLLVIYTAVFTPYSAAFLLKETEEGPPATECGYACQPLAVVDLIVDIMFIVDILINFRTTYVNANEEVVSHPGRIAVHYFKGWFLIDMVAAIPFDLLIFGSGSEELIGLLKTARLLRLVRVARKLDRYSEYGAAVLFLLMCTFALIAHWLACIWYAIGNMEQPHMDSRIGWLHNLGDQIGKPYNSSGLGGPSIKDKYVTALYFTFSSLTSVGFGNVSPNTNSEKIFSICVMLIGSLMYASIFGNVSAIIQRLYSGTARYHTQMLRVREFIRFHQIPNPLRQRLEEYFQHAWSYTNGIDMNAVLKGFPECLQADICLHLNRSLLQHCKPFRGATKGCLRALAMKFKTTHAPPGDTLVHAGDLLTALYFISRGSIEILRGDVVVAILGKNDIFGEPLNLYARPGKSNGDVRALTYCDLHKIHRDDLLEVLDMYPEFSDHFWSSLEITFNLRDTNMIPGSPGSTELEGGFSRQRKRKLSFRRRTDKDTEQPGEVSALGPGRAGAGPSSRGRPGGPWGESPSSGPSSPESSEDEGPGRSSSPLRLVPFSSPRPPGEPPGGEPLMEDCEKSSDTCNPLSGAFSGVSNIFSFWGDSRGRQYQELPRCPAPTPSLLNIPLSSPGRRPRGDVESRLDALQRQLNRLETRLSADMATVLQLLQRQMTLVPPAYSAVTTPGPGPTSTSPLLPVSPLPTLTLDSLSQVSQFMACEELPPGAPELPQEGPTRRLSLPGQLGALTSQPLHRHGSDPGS

SMILES	hERG current change (%, negative = inhibition) at 10uM [%]
COc1cc(C2C3=C(CCCC3=O)Nc3ccc4ncccc4c32)ccc1O (stereo not drawn)	5.67
Cl.Fc1ccc(C(OCCN2CCCC2)c2ccc(F)cc2)cc1	-71.3
COc1ccc(C)cc1NC(=O)CNC(=O)c1sc2ccccc2c1Cl	-4.35
O=C(NCCc1ccc(Cl)cc1Cl)c1cc([N+](=O)[O-])c[nH]c1=O	21.8
Cc1nn(-c2ccccc2)c(C)c1C(=O)Nc1ccc(N2CCOCC2)cc1	15.6
O=C(NCCC(=O)N1CCN(S(=O)(=O)c2ccc(F)cc2)CC1)Nc1ccccc1	-2.23
COc1ccc(N(CC(=O)Nc2ccc(C)c(C)c2)S(=O)(=O)c2c(C)noc2C)cc1	-3.67
NC(=O)C1CCN(C(=O)CC(c2ccccc2)c2ccccc2)CC1	-2.39
COc1cc(/C=C2/SC(=S)N(Cc3ccccc3)C2=O)ccc1OS(C)(=O)=O	17.8
CCCCCCC(=O)Nc1ccc(Cl)cn1	4.18
COc1ccc(S(=O)(=O)N2CCN(CC(=O)Nc3cc(OC)cc(OC)c3)CC2)cc1	-0.404
Cc1ccc(C(=O)COC(=O)c2ccccc2NC(=O)c2ccccc2)cc1[N+](=O)[O-]	4.55
Cc1ccc(/C=N/N(C)C2=NS(=O)(=O)c3ccccc32)cc1	8.78
NNC(=O)c1ccc(CN2CCCCC2)o1	1.21
O=C(CC1C(=O)NCCN1C(=O)Nc1ccccc1)Nc1cccc(C(F)(F)F)c1 (stereo not drawn)	1.16
CCN(CC)CCn1nc(C)nc1-c1ccccc1O	-16.9
O=C(CNC(=O)c1ccc(Br)cc1)N/N=C/c1cccnc1	1.33
C=CCc1c(C)[nH]c2c(OC)cccc2c1=S	-0.654
CCN1C(=O)[C@@H]2[C@@H](c3ccc(-c4ccc(Cl)c(Cl)c4)cc3)N3CCCC[C@@]3(C(=O)OC)[C@@H]2C1=O.O=C(O)C(F)(F)F	6.4
CC(C)c1ccccc1NC(=O)COC(=O)Cc1ccsc1	14.9
O=C(Nc1ccccc1)Nc1ccccc1C(=O)NCc1ccco1	-13.1
Cc1ccc2c(CC(=O)NC3CCS(=O)(=O)C3)coc2c1C (stereo not drawn)	1.78

SMILES	hERG current change (%, negative = inhibition) at 10uM [%]
CCOc1cccc(NC(=O)C2CCCN(S(=O)(=O)c3ccc(-n4cnnn4)cc3)C2)c1 (stereo not drawn)	5.5
N#CCCn1cc(/C=N/NC(N)=S)c(-c2ccccc2)n1	-28
CCN(CC)CCCC(C)NC(=O)c1ccc(C(F)(F)F)cc1.Cl (stereo not drawn)	-7.01
COc1ccccc1-c1coc2cc(OC(=O)/C=C/c3ccccc3)ccc2c1=O	-1.25
CCOc1ccc(C2NC(=O)CCC2[N+](=O)[O-])cc1 (stereo not drawn)	30.9
Cc1c(C(=O)NCCCN2CCOCC2)oc2c1C1(CCC2)SCCS1	-10.8
CCCC(C)NC(=O)CSc1nnc2ccccn12 (stereo not drawn)	16.8
Cc1nc2c(nnn2Cc2ccccc2)c(=O)n1-c1ccccc1	0.475
Cc1ccccc1CSCCNC(=O)c1ccccc1	-1.61
CCCCS(=O)Cc1ccccc1 (stereo not drawn)	-5.94
O=C(C(Cc1ccccc1)NS(=O)(=O)c1cccc2nsnc12)N1CCC2(CC1)OCCO2 (stereo not drawn)	-10.2
CCOc1ccc(C(=O)c2ccccc2C(=O)O)cc1OCC	21.4
CC(C)(C)NC(=O)CN1CCC(O)(c2ccc3c(c2)OCO3)CC1	-3.18
CCc1nc(Nc2ccccc2OC)c2oc3ccccc3c2n1.Cl	12.5
CCn1cc(C2=NC(C)(C)CO2)c2ccccc21	-8.38
CCOC(=O)C1=Nc2ccccc2C1=[N+]=[N-]	-4.78
COc1cc2c(cc1NC(=O)CSc1cccc[n+]1[O-])oc1ccccc12	-1.41
COc1cc(/C=C/C(=O)Nc2cccc(S(=O)(=O)NC3=NCCCCC3)c2)ccc1OCC#N	-4.72
O=C(O)CCC(=O)N1N=C(c2ccccc2)CC1c1ccc2nccnc2c1 (stereo not drawn)	7.33
O=C1CCN(N=Nc2cccc(Cl)c2)N1	3.28
COc1ccc(CCNC(=O)C23CCC(C)(C(=O)C2Br)C3(C)C)cc1OC (stereo not drawn)	4.92
O=C(COC(=O)c1ccc2c(c1)OCO2)NCc1ccc2c(c1)OCO2	-15.2

SMILES	hERG current change (%, negative = inhibition) at 10uM [%]
c1ccc2c(c1)SCc1nnc(-c3ccncc3)n1-2	-2.6
CC1CCCN(C(=O)Cn2c(=O)oc3ccccc32)C1 (stereo not drawn)	12.4
COCCNC(=O)C1CC(c2cccc(F)c2)=NO1 (stereo not drawn)	2.78
COc1ccc(/C=C/c2nnc(NC(=O)CSc3ccc(C)cc3)s2)cc1	17.4
CC1CCN(C(=O)COC(=O)CNC(=O)C23CC4CC(CC(C4)C2)C3)CC1	4.93
COC(CN(C(=O)CCl)C(C(=O)NC1CCCCC1)c1ccc(Cl)cc1)OC (stereo not drawn)	2.73
Cl.N=C(N)SCc1ccccn1	-8.71
CC1CN(C(=O)c2cc(Br)c(Br)s2)CC(C)O1 (stereo not drawn)	-11.8
Cc1nn(Cc2ccccc2)c(C)c1NC(=O)Cn1nc([N+](=O)[O-])c(Cl)c1C	-10.4
N#CC(C#N)=C(Nc1ccc(F)cc1)SCc1cccc(Br)c1	2.1
Cc1cc(C)c(Nc2ncnc(N)n2)c(C)c1	8.86
COc1ccc(CCOC(=O)c2cccc(NC(C)=O)c2)cc1	5.93
COC(=O)c1ccc(NCCC(=O)O)cc1	-4.87
COC(=O)c1sc(S(=O)(=O)N2CC(C)OC(C)C2)c(C(=O)OC)c1C (stereo not drawn)	-10.7
Cc1cc(Br)c2[nH]c3c(c2c1)CCCC3=O	-5.11
O=C(N/N=C\c1ccncc1)c1ccc(Br)s1	13
COc1cccc(/C=N/NC(=O)C(=O)NCc2ccco2)c1OC	11
Cc1cccc(C)c1OCc1cc(C(=O)NC2CCC2)no1	15.7
O=c1[nH]c(C2CCN(S(=O)(=O)c3ccc([N+](=O)[O-])cc3)CC2)nc2c1nnn2Cc1ccccc1	27.5
Cc1c(C2(O)C(=O)Nc3ccc(F)cc32)c(=O)n(-c2ccccc2)n1C (stereo not drawn)	0.582
COC(=O)c1ccc(OC(=O)CCc2cc(OC)c(OC)c(OC)c2)cc1	9.54
O=C(COc1ccc(Cl)cc1)Nc1cccc(S(=O)(=O)NCc2ccco2)c1	-42.7

SMILES	hERG current change (%, negative = inhibition) at 10uM [%]
CC(=O)Nc1ccc(S(=O)(=O)NC2(C(F)(F)F)C(=O)Nc3c2c(=O)[nH]c(=O)n3C)cc1 (stereo not drawn)	-5.06
O=C(CCNC(=O)c1ccco1)Nc1ccc(N2CCOCC2)cc1	9.59
COc1cc(/C=C/C(=O)C2C(=O)C=C(C)OC2=O)cc(OC)c1O (stereo not drawn)	4.63
O=C(C1CCCN(S(=O)(=O)c2ccc(Br)s2)C1)N1CCN(c2ccccc2)CC1 (stereo not drawn)	-63.8
COCCCNc1nc2ccccc2nc1NS(=O)(=O)c1ccc(C)c(C)c1	-0.0603
COc1cc(/C=N/NS(=O)(=O)c2ccc(C(C)(C)C)cc2)cc([N+](=O)[O-])c1O	12.9
CCCCN(C)C(=O)c1nc2ccccn2c1CN(C)Cc1csc(C)n1	17.8
COc1ccc(NS(=O)(=O)c2ccc(C)c(C(=O)NCC(c3ccco3)N3CCCCC3)c2)cc1 (stereo not drawn)	-20.5
C[C@@H](O)C1NC(=O)[C@H](CCCCN)NC(=O)c2cc([N+](=O)[O-])cc(F)c2NCCCC[C@@H](C(N)=O)NC1=O (stereo partly drawn)	11.3
NC(=O)c1sc2nc(-c3cccnc3)ccc2c1N	16.4
COc1cc(C(=O)Nc2nc3ccc4nc(C)sc4c3s2)cc(OC)c1OC	-5.34
Cc1cc(C(=O)N2CCN(c3ncccn3)CC2)sc1-c1ccccc1	-3.34
Cc1ccc(NC(=O)C2CCCN(S(=O)(=O)c3c(C)noc3/C=C/N(C)C)C2)cc1F (stereo not drawn)	-1.44
OCC1(c2cc(C(F)(F)F)n[nH]2)CCCCC1	-0.781
Cc1cccc(N2C(=O)NC(=O)/C(=C\c3ccc4c(c3)CCCN4Cc3ccccc3)C2=O)c1	5.53
CCn1c(=O)n(CC)c2cc(NC(=O)C(C)c3ccccc3)c(Br)cc21 (stereo not drawn)	7.4
CCn1nc(C)c(/C=N\NC(=O)c2ccc3c(c2)OCO3)c1C	7.11
COc1cccc(N(CC(=O)Nc2cccnc2)S(C)(=O)=O)c1	15.3
CCN(CC)C(=O)CSc1nc2ccc(NC(=O)CSc3nnc(COc4ccccc4C)n3C)cc2s1	-7.84
CC(NC(=O)C12CC3CC(CC(C3)C1)C2)C(=O)N/N=C/C1=C(N2CCOCC2)C(=C\c2cccc([N+](=O)[O-])c2)/CC1 (stereo not drawn)	3.71
Cc1ccc(C2Nc3cccc4cccc(c34)N2)cc1	3.91
